# Reference: ChEMBL document CHEMBL1201862, “PubChem BioAssay data set” (2004)
#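 Exposure lasted 48 hours, with cells grown in 96-well plates and compounds tested at five concentrations. GI50: concentration for 50% inhibition of growth.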 Activity calls are given as the source filed them. Cut-off read from the data, not from the text of the source: active = GI50 up to about 1.1 µM and inactive = higher.
# Tested on: NCI-H322M
# Experiment: NCI-60 cell line screen, 48 h
row,SMILES,GI50
1,O=C(NC1(C(=O)O)CCCC1)c1ccccc1,inactive: > 100 µM
2,NC1=NC(c2ccc(Cl)cc2)N(c2ccc(S(N)(=O)=O)cc2)C(N)=N1 (stereo unspecified),inactive: > 100 µM
3,CC(C)(C)C1C=C(Sc2ccccc2)C(=O)O1 (stereo unspecified),inactive: > 100 µM
4,CC(=O)NC1=C(C)C(=O)c2c(nc3n2CCC3O)C1=O (stereo unspecified),inactive: > 100 µM
5,O=C(Cc1ccccc1)N/N=C1\C(=O)Nc2ccccc21,inactive: > 100 µM
6,COc1ccc(OC)c(C(Cc2ccnc3ccccc23)Cc2ccnc3ccccc23)c1,inactive: > 10 µM
7,CC1=CC(=O)/C(=C/Nc2nc(-c3cccc([N+](=O)[O-])c3)cs2)C(=O)O1,inactive: > 100 µM
8,COc1ccc(/C=C2\C[C@H]3[C@@H]4CC=C5C[C@@H](OC(C)=O)CC[C@]5(C)[C@H]4CC[C@]3(C)\C2=N\O)cc1OC,inactive: 22.3 µM
9,Cc1cc(S(=O)(=O)Nc2nncn2-c2ccc(Cl)cc2)c(S)cc1Cl,inactive: > 10 µM
10,O=C1NC2(CCCCCC2)C2CCCCCCC12O (stereo unspecified),inactive: > 100 µM
11,Cn1cnc2nc(Cl)nc(NC(C)(C)C(C)(C)O)c21,inactive: > 100 µM
12,Clc1ccc(CCn2cncn2)cc1,inactive: > 100 µM
13,COc1cc(C2c3cc4c(cc3OC(N3CCCC3)C2C)OCO4)cc(OC)c1OC (stereo unspecified),active: 0.619 µM
14,COc1cccc2c1C(=O)c1c(O)c3c(c(O)c1C2=O)C[C@@](O)(/C(C)=N/NC(=O)c1ccccc1)C[C@@H]3OC1CC(N)C(O)C(C)O1 (stereo partly specified),active: 0.998 µM
15,CCNC1=C(NC(=O)c2ccc(OC)cc2)C(=O)c2ccccc2C1=O,inactive: > 100 µM
16,COc1ccc(CC2OC3(CCCCC3)CC3CCCCN32)cc1 (stereo unspecified),inactive: > 100 µM
17,CCOC(=O)[C@H]1O[C@@H]1C(=O)NC(CC(C)C)C(=O)NCCC(C)C (stereo partly specified),inactive: > 100 µM
18,O=C(c1nc2ccc(Cl)cc2[nH]c1=O)C(O)c1cccc([N+](=O)[O-])c1 (stereo unspecified),inactive: > 100 µM
19,S=c1nc(Nc2ccccc2)c2c3c(sc2[nH]1)CCCC3,inactive: > 100 µM
20,COc1ccc(C2=CC3CCC2C3)cc1 (stereo unspecified),inactive: > 100 µM
21,CCC1=CCN(c2ccc(C)cc2)OC1c1ccc(OC)cc1 (stereo unspecified),inactive: > 100 µM
22,C=CCNC(=S)N/C=C1\C(=O)Oc2ccccc2C1=O,inactive: 50.6 µM
23,O=C(c1ccccc1)c1ccc(C(c2c(O)c3ccccc3oc2=O)c2c(O)c3ccccc3oc2=O)cc1,inactive: 20.7 µM
24,Cc1ccccc1C1CC(=O)CC(c2ccccc2C)C12C(=O)NC(=S)NC2=O (stereo unspecified),inactive: 29.6 µM

row,SMILES,GI50
1,CC(C)C1CNC2N1C(=O)C2(C)OCc1ccccc1 (stereo unspecified),inactive: > 100 µM
2,CSc1ccc(NC(=O)CCl)cc1,inactive: > 10 µM
3,CC1(C)OC2OC(COC(=O)C(c3ccccc3)c3ccccc3)C3OC(C)(C)OC3C2O1 (stereo unspecified),inactive: 61.4 µM
4,c1csc(-c2ccc(-c3ccc(-c4ccc(-c5cccs5)s4)s3)s2)c1,inactive: > 100 µM
5,O=C(NCCc1ccccc1)C1C(=O)C(=O)N(CCc2ccccc2)C1=O (stereo unspecified),inactive: > 100 µM
6,COC(=O)C(CC(=O)c1cc2c(cc1I)OCO2)Cc1cc(OC)c(OC)c(OC)c1I (stereo unspecified),inactive: > 100 µM
7,CC1CC(c2ccc(Cl)c(Cl)c2)=Nc2ccccc2S1 (stereo unspecified),inactive: > 100 µM
8,C/C(CC(=O)Nc1ccc(Cl)c(Cl)c1)=N/NC(=O)C[n+]1ccccc1,inactive: > 100 µM
9,CCC(=O)NC(NNS(=O)(=O)c1ccc(C)cc1)(C(F)(F)F)C(F)(F)F,inactive: > 100 µM
10,C=CCC(CC=O)(C(=O)OCC)C(=O)OCC,inactive: > 100 µM
11,COc1cccc2c1CCc1c(-c3ccc(F)cc3)cc(-c3ccc4ccccc4n3)nc1-2,inactive: > 100 µM
12,Cc1ccc(NC(=O)/C=C/c2ccccc2)c(C)c1,inactive: > 100 µM
13,O=C(O)COc1cccc2ccccc(=O)c12,inactive: > 100 µM
14,OC1c2ccccc2[C@@H]2[C@H]1[C@@H](c1ccccc1)C1(Cc3ccccc3C1O)[C@H]2c1ccccc1 (stereo partly specified),inactive: 9.64 µM
15,COC(=O)C1=C(OC(=O)c2ccccc2)C(C(=O)OC)[C@]2(O)[C@@H](C(=O)OC)[C@H]1C[C@@H](c1ccccc1)[C@@H]2C(=O)OC (stereo partly specified),inactive: 17.2 µM
16,Cc1ccc(S(=O)(=O)NC2C(=O)c3ccccc3C(=O)C2n2ccnc2)cc1 (stereo unspecified),inactive: 14.7 µM
17,CC(C)(O)C1COC2=C1C(=O)c1ccccc1C2=O (stereo unspecified),inactive: > 100 µM
18,CCCn1c(=O)c(N2CCN(c3ccccc3)CC2)nc2sc3ccccc3c21,inactive: > 100 µM
19,NC(CCCNCc1ccccc1O)C(=O)O (stereo unspecified),inactive: > 100 µM
20,COc1ccc(NC(=O)CC/C(CC(=O)c2ccco2)=N/NC(N)=S)cc1,inactive: > 100 µM
21,C[n+]1c2ccccc2c(NC(CCCNC(=N)N)C(=O)O)c2ccccc21 (stereo unspecified),inactive: > 100 µM
22,[O-]/N=[N+](/[O-])C1CCCCC1=[N+]1CCOCC1 (stereo unspecified),inactive: > 100 µM
23,CC1CC/C(=C\c2ccc(Cl)cc2)C2OC(N)=C(C#N)C(c3ccc(Cl)cc3)=C12 (stereo unspecified),inactive: 12.7 µM
24,COc1ccc(/C=C/C(=O)c2cc(OC)cc(OC)c2)cc1,inactive: 5.98 µM

row,SMILES,GI50
1,COC(=O)C(Cc1c[nH]c2ccccc12)NC(=O)c1ccc(-c2ccc(Cl)cc2Cl)o1 (stereo unspecified),inactive: 59.4 µM
2,CN1C(c2ccccc2)CC(=Nc2ccccc2)CC1c1ccccc1 (stereo unspecified),inactive: 18.4 µM
3,COc1ccc2nc3cccc([N+](=O)[O-])c3c(NCCO)c2c1,active: 0.0276 µM
4,COC(=O)C(Cc1c(C2Nc3ccccc3C2CC(NC(C)=O)C(=O)OC)[nH]c2ccccc12)NC(C)=O (stereo unspecified),inactive: > 100 µM
5,Cc1ccc(/N=N/c2c(O)c(C(=O)Nc3ccccc3)cc3ccccc23)c([N+](=O)[O-])c1,inactive: > 100 µM
6,C[N+]1(CC[N+]2(C)CCCC2c2cccnc2)CCCC1c1cccnc1 (stereo unspecified),inactive: 18.4 µM
7,FC(F)(F)c1ccccc1N1CCN(c2nc(-c3cccs3)nc3ccc(Br)cc23)CC1,inactive: 38.3 µM
8,CCOC(=O)CCC(C(=O)OCC)n1nc2ccc(Nc3c(C)[n+]([O-])c4ccc(Cl)cc4[n+]3[O-])cc2n1 (stereo unspecified),inactive: 37.1 µM
9,O=C1CCCCc2cccc(O)c21,inactive: > 100 µM
10,CCOC(=O)NC(Nc1ncn(C(NC(=O)OCC)(C(F)(F)F)C(F)(F)F)n1)(C(F)(F)F)C(F)(F)F,inactive: > 100 µM
11,C#CCOC(=O)C=[N+]=[N-],inactive: > 10 µM
12,NC(=O)NNc1nc(-c2ccccc2)cs1,inactive: > 100 µM
13,COC(=O)C1Cc2cc3c(cc2C1=O)CCCC3 (stereo unspecified),inactive: > 100 µM
14,Nc1nc(=O)n(C2CC(O)C(CO)O2)c2nc(-c3ccc(-c4ccccc4)cc3)cnc12 (stereo unspecified),inactive: 62.8 µM
15,CCC1CN2CCC1CC2 (stereo unspecified),inactive: > 100 µM
16,CN(N)/N=N/c1[nH]cnc1C(N)=O,inactive: > 42.1 µM
17,Cc1cc(O)c(O)c(Oc2cc(C)cc(O)c2O)c1,inactive: 22.5 µM
18,Cc1c2ccnc(C(F)(F)F)c2cc2c1[nH]c1ccccc12,inactive: > 125 µM
19,O=C(O)c1ccccc1/C=C1\Cc2ccc3c(c2C1=O)CCCC3,inactive: 42.6 µM
20,Cc1ccc(Cc2nn(C)c(=O)n2-n2cccc2)cc1,inactive: > 100 µM
21,CSc1nc2c(nc(N)n2C2OC(CO)C(O)C(O)C2O)c(=O)n1C (stereo unspecified),inactive: > 100 µM
22,COC(=O)C(C/C=C(\C)c1ccc(Cl)cc1)C(C)=O (stereo unspecified),inactive: 97.7 µM
23,NC(=O)c1ccccc1NC(=O)C(=O)C(C(=O)c1ccc2ccccc2c1)C1OC(=O)c2ccccc21 (stereo unspecified),inactive: 7.6 µM
24,O=c1[nH]c(=O)n(C2OC(CO)C(O)C2O)cc1OCCCc1ccccc1 (stereo unspecified),inactive: > 100 µM

row,SMILES,GI50
1,CC(=O)C1=C(C)N2C(=NC3=C(CCc4ccccc43)C2c2cccc(Br)c2)S1 (stereo unspecified),inactive: > 100 µM
2,NC1c2c(Br)sc(N3CCCC3)c2C(=O)C1O (stereo unspecified),inactive: > 50 µM
3,O=C1OC(c2ccccc2)(c2ccccc2)c2ccc3ccc(F)cc3c21,inactive: > 100 µM
4,O=C(/C=C/c1ccc2c(c1)OCO2)c1ccccc(=O)c1O,inactive: 15 µM
5,Cc1ccc(C2CC(c3ccc([N+](=O)[O-])cc3)=Nc3ccccc3S2)cc1 (stereo unspecified),inactive: 33.5 µM
6,Cn1c(=O)n(CC(Br)CBr)c(=O)n(CC(Br)CBr)c1=O (stereo unspecified),inactive: 28.5 µM
7,CC(=O)NC(CCCCN(Cc1ccccc1)C(=O)NCCCl)C(=O)NCc1ccccc1 (stereo unspecified),inactive: > 100 µM
8,O=C(/C=C/c1ccccc1)N1CCCCC1,inactive: > 100 µM
9,COC1(OC)N=C(N)C2(C#N)C(c3ccccc3)NC3=C(CCC3)C12C#N (stereo unspecified),inactive: > 100 µM
10,N#Cc1c(-c2ccc(Cl)cc2)c2c(n(C3OC(CO)C(O)C(O)C3O)c1=S)CCC2 (stereo unspecified),inactive: 45.2 µM
11,O=C1O/C(=C\c2ccc(O)cc2)C(c2ccc(O)c(Cl)c2)=C1Br,inactive: 16.2 µM
12,Cc1c(CCN=P(c2ccccc2)(c2ccccc2)c2ccccc2)c(=O)n2c([nH]c3ccccc32)c1C#N,inactive: > 10 µM
13,Cc1ccc(Nc2nc(=S)[nH]c3[nH]ncc23)cc1,inactive: > 100 µM
14,Cn1c(=O)sc2cc(C(=S)N3CCCCC3)ccc21,inactive: > 100 µM
15,c1ccc(C2N3CCCCC3[C@@H]3c4[nH]c5ccccc5c4CCN23)cc1 (stereo partly specified),inactive: > 100 µM
16,CC(=O)Nc1ccc(/C=c2\sc3nnc(-c4cccnc4)n3c2=O)cc1,inactive: 33.8 µM
17,C=CC(Br)(CBr)CCC1OC1(C)C (stereo unspecified),inactive: 28.7 µM
18,Cc1cccc(NC(=O)O/N=C(\Cl)C(C)C)c1,inactive: 16.7 µM
19,CO/C(C)=N/CCC1=CCCCC1,inactive: > 100 µM
20,CC(=O)OC1(C)C=CC(=O)C=C1,inactive: > 100 µM
21,O=C(Nc1cccs1)c1c(O)[nH]c(=S)[nH]c1=O,inactive: > 100 µM
22,O=C1/C(=N\NC(=S)NC2CCCCC2)c2cc([N+](=O)[O-])ccc2N1CN1CCOCC1,inactive: 10.2 µM
23,CO[C@H]1[C@@H](O)[C@@H](O)O[C@@H](O[C@H]2CC[C@@]3(C)[C@H](CC[C@@H]4[C@@H]3[C@H](O)C[C@]3(C)[C@@H](C5=CC(=O)OC5)CC[C@]43O)C2)[C@@H]1O,active: 0.258 µM
24,C=C(CN(C)C)C(=O)c1ccc(OC)cc1,inactive: 19.2 µM
